This is one part of the list. Single values of this set are uncertain. Values with irradiation are relative to irradiated vehicle.
Key:
[1] = tested on: A549-Dual; assay: NF-kB reporter (SEAP) activity, viability-corrected, relative to vehicle (fold change vs vehicle); higher = more activation of STING-IRF / NF-kB immune response reporter; settings: 10 µM
[2] = tested on: A549-Dual; assay: ISRE reporter (Lucia luciferase) activity, viability-corrected, relative to vehicle (fold change vs vehicle); higher = more activation of STING-IRF / NF-kB immune response reporter; settings: 10 µM
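Wherever NF-kB reporter (SEAP) activity, viability-corrected, relative to vehicle is given: viability correction based on the alamar blue assay, with concentrations leaving 10% survival or less dropped.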

Compound | NF-kB reporter ([1]; irradiation: 8 Gy/4 fr) | NF-kB reporter ([1]; irradiation: none) | ISRE reporter ([2]; irradiation: 8 Gy/4 fr) | ISRE reporter ([2]; irradiation: none)
CC/C=C\C/C=C\C/C=C\C/C=C\C/C=C\C/C=C\CCC(=O)O [Docosahexaenoic Acid] | 0.923 | 0.913 | 0.542 | 0.446
NCCS [2-Aminoethanethiol] | 0.709 | 0.624 | 0.738 | 0.488
Nc1ncnc2c1ncn2C1OC(COP(=O)(O)OP(=O)([O-])OP(=O)([O-])O)C(O)C1O.[Na+].[Na+] (stereo not given) | 0.697 | 0.529 | 0.677 | 0.651
CC1(C)SC2C(NC(=O)C(NC(=O)N3CCNC3=O)c3ccccc3)C(=O)N2C1C(=O)O.[NaH] (stereo not given) [Azlocillin sodium salt] | 0.848 | 1.24 | 0.765 | 0.743
O=C(CCCN1CCN(c2ccccn2)CC1)c1ccc(F)cc1 [Azaperone] | 0.803 | 1.33 | 0.72 | 0.72
C[C@H](N)C(=O)O [L-Alanine] | 1.46 | 1.03 | 1.44 | 1.08
CNC1(C)C2CCC(C2)C1(C)C.Cl (stereo not given) [Mecamylamine Hydrochloride] | 1.56 | 2.17 | 0.643 | 2.31
Nc1ccc(S(=O)(=O)c2ccc(N)cc2)cc1 [Dapson] | 0.758 | 0.991 | 0.771 | 0.905
CC(=O)Nc1ccc(C(=O)O)cc1.CC(=O)Nc1ccc(C(=O)O)cc1.CC(=O)Nc1ccc(C(=O)O)cc1.CC(O)CN(C)C.CC(O)CN(C)C.CC(O)CN(C)C.O=c1[nH]cnc2c1ncn2C1OC(CO)C(O)C1O (stereo not given) [Isoprinosine] | 0.812 | 1.07 | 0.678 | 0.966
CN1CCCN=C1/C=C/c1cccs1.O=C(O)c1cc2ccccc2c(Cc2c(O)c(C(=O)O)cc3ccccc23)c1O [Pyrantel Pamoate] | 0.943 | 1.38 | 0.401 | 0.526
COc1c(N2CC3CCCNC3C2)c(F)cc2c(=O)c(C(=O)O)cn(C3CC3)c12 (stereo not given) [Moxifloxacin] | 0.79 | 0.926 | 0.694 | 0.688
CCn1cc(C(=O)O)c(=O)c2cnc(N3CCCC3)nc21 [Piromidic Acid] | 0.785 | 0.966 | 0.862 | 0.877
Cc1ncc([N+](=O)[O-])n1CC(C)O (stereo not given) [Secnidazole] | 0.78 | 1.1 | 0.77 | 0.941
CC(C)C(=O)OCC(=O)C12OC(C3CCCCC3)OC1CC1C3CCC4=CC(=O)C=CC4(C)C3C(O)CC12C (stereo not given) [Ciclesonide] | 0.603 | 1.01 | 0.124 | 0.363
CC1(C)OCC(COC(=O)CCc2ccc(OCC(O)CNCCNC(=O)N3CCOCC3)cc2)O1.Cl (stereo not given) [Landiolol hydrochloride] | 1.44 | 0.936 | 0.879 | 0.886
COCCCOc1ccnc(CS(=O)c2nc3ccccc3[nH]2)c1C (stereo not given) [Rabeprazole] | 0.371 | 0.722 | 0.142 | 0.335
NC(=O)c1cnccn1 [Pyrazinamide] | 0.998 | 0.954 | 0.955 | 0.807
N=C(N)NCCCC1NC(=O)C(CCCCN)NC(=O)C(Cc2ccccc2)NC(=O)C(CC(=O)O)NC(=O)CNC1=O.O=C(O)C(F)(F)F (stereo not given) [Cyclo (-RGDfK)] | 0.93 | 0.677 | 1.1 | 0.737
CCN(CC)CCOC(=O)c1ccc(N)cc1Cl.Cl [Chloroprocaine HCl] | 0.641 | 0.724 | 0.606 | 0.601
CCCCCc1ccc(C)cc1O [Amylmetacresol] | 0.787 | 1.05 | 0.717 | 0.915
Cc1cn[nH]c1 [Fomepizole] | 0.842 | 0.92 | 0.74 | 0.808
O=C(CO)C(O)C(O)C(O)CO (stereo not given) [Fructose] | 0.846 | 0.826 | 0.724 | 0.55
COc1cc2nc(N3CCN(C(=O)c4ccco4)CC3)nc(N)c2cc1OC [Prazosin] | 1.48 | 2.44 | 1.29 | 4.21
CC1CN(CC(Cc2ccccc2)C(=O)NCC(=O)O)CCC1(C)c1cccc(O)c1 (stereo not given) [Alvimopan] | 0.824 | 1.12 | 0.742 | 0.69
NCCCCC(NC(=O)C1CCCN1C(=O)C1CSSCC(N)C(=O)NC(Cc2ccc(O)cc2)C(=O)NC(Cc2ccccc2)C(=O)NC(CCC(N)=O)C(=O)NC(CC(N)=O)C(=O)N1)C(=O)NCC(N)=O (stereo not given) [Lypressin Acetate] | 1.31 | 0.646 | 1.47 | 0.729
CC(C)c1nc(CN(C)C(=O)NC(C(=O)NC(Cc2ccccc2)CC(O)C(Cc2ccccc2)NC(=O)OCc2cncs2)C(C)C)cs1 (stereo not given) [Ritonavir] | 0.606 | 0.671 | 0.655 | 0.812
O=C(O)c1ccc(S(=O)(=O)N(Cl)Cl)cc1 [Halazone] | 1.03 | 1.2 | 0.807 | 1.23
COC(=O)CCc1ccc(OCC(O)CNC(C)C)cc1.Cl (stereo not given) [Esmolol HCl] | 1.01 | 1.23 | 0.779 | 0.799

Compound | NF-kB reporter ([1]; irradiation: 8 Gy/4 fr) | NF-kB reporter ([1]; irradiation: none) | ISRE reporter ([2]; irradiation: 8 Gy/4 fr) | ISRE reporter ([2]; irradiation: none)
CCOc1cc(CC(=O)NC(CC(C)C)c2ccccc2N2CCCCC2)ccc1C(=O)O (stereo not given) [Repaglinide] | 0.618 | 0.786 | 0.793 | 0.667
CCC(C)(C)c1ccc(CC(C)CN2CC(C)OC(C)C2)cc1.Cl (stereo not given) [Amorolfine HCl] | 0.771 | 0.788 | 0.7 | 0.574
O=S(=O)([O-])c1cc(O)ccc1O [Calcium Dobesilate] | 1.02 | 0.727 | 1.21 | 0.596
O=C([O-])C(O)C(O)C(O)C(O)CO.[Na+] (stereo not given) [Sodium Gluconate] | 0.791 | 0.882 | 0.748 | 0.793
CCN(CC)CCOC(=O)C1(C2CCCCC2)CCCCC1.Cl [Dicyclomine HCl] | 0.953 | 0.879 | 0.715 | 1.02
Cn1cc[nH]c1=S [Methimazole] | 0.688 | 0.799 | 0.549 | 0.702
CN(C)C(=O)NC1CCC(CCN2CCN(c3cccc(Cl)c3Cl)CC2)CC1.Cl (stereo not given) [Cariprazine HCl] | 0.681 | 1.15 | 0.613 | 0.93
CC(Cc1ccc(O)c(O)c1)(NN)C(=O)O (stereo not given) [Carbidopa] | 0.939 | 0.881 | 0.89 | 0.677
Nc1cccc2c1CN(C1CCC(=O)NC1=O)C2=O (stereo not given) [Lenalidomide (CC-5013)] | 0.926 | 0.989 | 1.19 | 1.06
O=C([O-])CCC(=O)[O-].[Na+].[Na+] [Sodium succinate] | 0.976 | 0.926 | 1.08 | 0.896
CC(C)(C)C1NC(=O)OC2CCCC2OC/C=C/C(F)(F)c2nc3ccccc3nc2OC2CC(C(=O)NC3(C(=O)NS(=O)(=O)C4(C)CC4)CC3C(F)F)N(C2)C1=O (stereo not given) [Glecaprevir] | 0.777 | 0.944 | 0.928 | 1.1
CN(C)CC(c1ccc(O)cc1)C1(O)CCCCC1.O=C(O)CCC(=O)O (stereo not given) [Desvenlafaxine Succinate] | 0.94 | 1.45 | 0.988 | 1.11
CCC(=O)NCC1CC1c1cccc2c1CCO2 (stereo not given) [Tasimelteon] | 0.755 | 1.26 | 0.687 | 0.729
CCN(CC)Cc1cc(Nc2ccnc3cc(Cl)ccc23)ccc1O.Cl.Cl.O.O [Amodiaquine dihydrochloride dihydrate] | 1.29 | 1.08 | 1.53 | 1.39
C#CC1(OC(C)=O)CCC2C3CCC4=CC(OC(C)=O)CCC4C3CCC21C (stereo not given) [Ethynodiol diacetate] | 0.604 | 2.05 | 0.401 | 1.35
O=C(Nc1ccc(Cl)cc1)Nc1ccc(Cl)c(Cl)c1 [Triclocarban] | 0.877 | 0.825 | 0.386 | 0.39
CC12CCC3c4ccc(O)cc4CCC3C1CCC2O (stereo not given) [Estradiol] | 1.05 | 1.22 | 0.835 | 0.829
CCCNC1CCc2nc(N)sc2C1.Cl.Cl (stereo not given) [Pramipexole dihydrochloride] | 0.925 | 1.15 | 1.11 | 0.998
c1coc(CNc2ncnc3nc[nH]c23)c1 [Kinetin] | 0.829 | 0.548 | 0.811 | 0.568
O=c1[nH]c(=O)n(C2CC(O)C(CO)O2)cc1C(F)(F)F (stereo not given) [Trifluridine] | 0.656 | 1.69 | 0.43 | 2.36
COCCc1ccc(OCC(O)CNC(C)C)cc1 (stereo not given) [Metoprolol] | 0.937 | 0.958 | 0.915 | 0.917
COc1ccc2[nH]cc(CCNC(C)=O)c2c1 [Melatonin] | 0.874 | 1.01 | 0.848 | 0.728
Br.COc1ccc2c3c1OC1CC(O)C=CC31CCN(C)C2 (stereo not given) [Galanthamine HBr] | 0.78 | 1.25 | 0.606 | 0.647
O.O=c1c(O)c(-c2ccc(O)cc2O)oc2cc(O)cc(O)c12 [Morin Hydrate] | 0.709 | 0.646 | 0.55 | 0.423
O=c1ccc2ccc(O)cc2o1 [Umbelliferone] | 0.933 | 0.868 | 0.735 | 0.677
CCOC(=O)C1=C(COCCN)NC(C)=C(C(=O)OC)C1c1ccccc1Cl.O=S(=O)(O)c1ccccc1 (stereo not given) [Amlodipine Besylate] | 0.911 | 0.879 | 1.07 | 2.25
CCCCC(=O)OC1CCC2C3CCc4cc(O)ccc4C3CCC12C (stereo not given) [Estradiol valerate] | 0.881 | 1.08 | 0.6 | 1.02

— the supplement of paper PMC9174493
